Laboratory results from publication PMC4336329 (PLoS ONE, 2015).
Hit rate of the full screen: of about 310,000 compounds, about 14,000 (4.5%) showed an effect of 50% or more. Effects have a minus sign here. Some of the results follow. *1 amine or outer side, *2 acyl side, *3 side chain or, on linkers, in order; H or OH if unused. Where a SMILES comes first, the peptide text is derived from it. Bridges are numbered along the chain shown (N, C = ends). [ ]: non-standard residue; d: D form. ξ: configuration not given here. hSer(Ph(2-I,4-NO2,6-CO)) = O=C([C@H](CCOc1c(I)cc([N+](=O)[O-])cc1C(=O)[*:3])N[*:1])[*:2]; ξD = NC(CC(=O)O)C(=O)O

Molecular target: human ether-à-go-go-related gene (hERG) potassium channel (human, UniProt Q12809)
Experiment: primary screen, population patch clamp on CHO cells stably expressing hERG
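Note: peak tail current of the secondary pulse compared with the same well before compound.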

human ether-à-go-go-related gene (hERG) potassium channel, sequence (Q12809 whole entry, looked up): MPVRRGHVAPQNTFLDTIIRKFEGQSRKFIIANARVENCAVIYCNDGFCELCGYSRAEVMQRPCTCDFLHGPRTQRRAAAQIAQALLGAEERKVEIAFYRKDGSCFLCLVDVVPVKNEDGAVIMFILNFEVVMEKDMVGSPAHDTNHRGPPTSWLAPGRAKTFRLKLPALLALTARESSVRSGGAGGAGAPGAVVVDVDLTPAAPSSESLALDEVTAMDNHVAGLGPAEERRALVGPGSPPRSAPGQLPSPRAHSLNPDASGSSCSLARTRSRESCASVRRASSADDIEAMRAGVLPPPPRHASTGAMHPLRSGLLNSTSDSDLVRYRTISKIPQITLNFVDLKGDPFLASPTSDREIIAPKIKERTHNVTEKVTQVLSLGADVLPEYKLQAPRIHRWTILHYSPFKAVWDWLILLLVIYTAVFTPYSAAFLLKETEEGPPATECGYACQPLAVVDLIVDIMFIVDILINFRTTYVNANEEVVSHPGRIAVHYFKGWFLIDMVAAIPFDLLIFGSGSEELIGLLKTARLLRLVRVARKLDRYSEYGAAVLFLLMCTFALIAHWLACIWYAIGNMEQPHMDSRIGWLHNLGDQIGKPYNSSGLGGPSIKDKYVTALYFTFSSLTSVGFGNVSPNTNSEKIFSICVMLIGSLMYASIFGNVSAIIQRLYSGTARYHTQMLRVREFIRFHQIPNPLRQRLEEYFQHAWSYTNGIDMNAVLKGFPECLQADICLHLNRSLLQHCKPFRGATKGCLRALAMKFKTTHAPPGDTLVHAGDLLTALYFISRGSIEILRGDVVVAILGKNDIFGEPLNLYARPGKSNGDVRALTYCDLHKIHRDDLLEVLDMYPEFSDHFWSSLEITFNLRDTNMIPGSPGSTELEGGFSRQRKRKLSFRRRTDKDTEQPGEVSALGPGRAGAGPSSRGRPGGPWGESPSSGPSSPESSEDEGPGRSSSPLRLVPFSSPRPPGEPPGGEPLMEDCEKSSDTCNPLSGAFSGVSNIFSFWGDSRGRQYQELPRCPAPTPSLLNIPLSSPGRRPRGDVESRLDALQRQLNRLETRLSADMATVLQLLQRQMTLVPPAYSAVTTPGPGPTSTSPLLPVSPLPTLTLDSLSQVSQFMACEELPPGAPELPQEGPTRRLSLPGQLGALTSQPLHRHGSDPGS

Row | Compound | hERG current change (%, negative = inhibition) at 10uM
1 | CCN=c1sc(C(=O)NCCc2ccccc2)cc(=O)n1CC | -6.26%
2 | Cc1ccc(S(=O)(=O)Nc2nc3ccccc3nc2NCc2ccco2)cc1C | -6.13%
3 | O=C(CNC(=O)c1ccc(S(=O)(=O)N2CCCCC2)cc1)N/N=C/c1ccco1 | 9.7%
4 | Cc1ccc(N)cc1O | 18.2%
5 | Cn1ncc(C#N)c1NC(=O)C1CC(c2ccccc2Cl)=NO1 (centres unmarked) | -11.5%
6 | CCCCC(=O)OCc1c(-c2cccc(OC)c2)ncc2ccccc12 | 16.5%
7 | COc1ccc(C(=O)CSc2[nH]c(=O)cc(C(F)(F)F)c2C#N)cc1 | 18.2%
8 | CC(OC(=O)C1CCN(c2ccc(C(F)(F)F)cn2)CC1)C(=O)Nc1cccc([N+](=O)[O-])c1 (centres unmarked) | -14.1%
9 | CC[C@@]1(O)C(=O)OCc2c1cc1n(c2=O)Cc2cc3c(CN(C)C)c(O)ccc3nc2-1.Cl | 13.6%
10 | C/C(=N\Nc1ccc(C(=O)O)cc1)c1nc2ccccc2n1C | 9.56%
11 | COCCN(C(=O)COC(=O)CSc1ccc2ccccc2c1)c1c(N)n(Cc2ccccc2)c(=O)[nH]c1=O | 3.86%
12 | COC(=O)Cc1c(C)c2ccc(O)c(CN3CCCC(C)C3)c2oc1=O (centres unmarked) | 5.43%
13 | CCOc1ccccc1NC(=O)CSc1nc2c(c(=O)n(C)c(=O)n2C)n1C | 4.67%
14 | O=C(COC(=O)c1cccc(OC(F)F)c1)NC1CCCC1 | -9.43%
15 | Cc1cc(S(=O)(=O)N2CCOCC2)ccc1OCC(=O)Nc1ccccc1F | 18.9%
16 | O=C(/C=C/c1ccccc1)NCc1ccco1 | 15.1%
17 | C/C(=N\OCC(=O)OCC(=O)N(Cc1ccccc1)C(C)(C)C)c1ccc2c(c1)OCO2 | 15.1%
18 | C[C@@H]1NC(=O)c2cc([N+](=O)[O-])cc(I)c2OCC[C@@H](C(=O)NC(CC(=O)O)C(N)=O)NC(=O)[C@H](CC(N)=O)NC1=O (some centres unmarked) (AN[hSer(Ph(2-I,4-NO2,6-CO))][ξD]-NH2; lactam N-3) | 30.2%
19 | CCc1cc(C(=O)OCC(=O)N2CCC(c3ccccc3)=N2)sc1C | 21.1%
20 | CC(C)Sc1nnc(NC(=O)C2CC2)s1 | -2.93%
21 | O=C(COC(=O)c1ccccc1C(=O)OCC(=O)NCCc1c[nH]c2ccccc12)NCCc1c[nH]c2ccccc12 | -2.91%
22 | CCCOC(=O)c1ccc(Cl)c(NC(=O)c2ccc(-c3ccccc3)cc2)c1 | -5.63%

Row | Compound | hERG current change (%, negative = inhibition) at 10uM
23 | Fc1cc(F)cc(Nc2nc(Cl)nc(NC3CCCC3)n2)c1 | 8.89%
24 | Cc1ccccc1CNS(=O)(=O)c1ccc2c(c1)OCCO2 | -27%
25 | Cc1ccc(C(=O)O/N=C2\CC3CCC2(C)C3(C)C)cc1 (centres unmarked) | -9.45%
26 | CC1CCCN(C(=O)CSc2nnc(-c3ccc(O)cc3)o2)C1 (centres unmarked) | 12%
27 | C=CCn1c(=S)[nH]c2nc3c(cc2c1=O)CCCC3 | -1.63%
28 | N#CNC(=Nc1ccc(F)cc1)SCc1ccccc1 | -8.34%
29 | Cn1c(=O)[nH]c(=O)c2c1nc([N+](=O)[O-])n2Cc1ccccc1 | 1.08%
30 | Clc1ccccc1CSc1snnc1-c1ccccc1 | 0.469%
31 | C=C1CCC2C(C)(C)[C@H](O)CC[C@@]2(C)[C@@H]1COc1cc(=O)oc2ccccc12 (some centres unmarked) | -11.5%
32 | O=C(Nc1ccccn1)C1(c2ccccc2)CCCC1 | -3.92%
33 | COc1ccccc1NC(=O)CSc1nc2[nH]ncc2c(=O)[nH]1 | 6.31%
34 | CCN(C(=O)CSc1nnc(-c2ccc3c(c2)OCO3)o1)C1CCS(=O)(=O)C1 (centres unmarked) | 3.88%
35 | COc1cccc(CNC(=O)CCC2CCCN(C(=O)C3=CC(=O)CC(C)(C)O3)C2)c1 (centres unmarked) | 15.9%
36 | CCCC(=O)C1C(=O)CC(C)(C)C(c2cc(C)no2)C1=O (centres unmarked) | -6.76%
37 | CCC(C)NC(=O)C1CCC(CNS(=O)(=O)c2cccc3nsnc23)CC1 (centres unmarked) | 11%
38 | O=C(NC1CCCCC1)C(c1ccco1)N(C(=O)C(F)(F)F)C1CC1 (centres unmarked) | -4.69%
39 | COc1ccc(C(=O)Nc2ccc(S(=O)(=O)N3CCN(C)CC3)cc2)cc1[N+](=O)[O-] | 6.49%
40 | CC12CCC(c3nnc(SCC(=O)Nc4cccc5ccccc45)nc31)C2(C)C (centres unmarked) | -17.9%
41 | Cn1c(=O)[nH]c(=O)c2c1nc(Br)n2CCCCSc1nc2ccccc2o1 | -55.6%
42 | O=C(Cn1nc(-c2ccco2)ccc1=O)Nc1cc(C(F)(F)F)ccc1Cl | 7.12%
43 | S=c1[nH]c2cc(Cl)ccc2s1 | 15.4%
44 | CN(Cc1ccccc1)S(=O)(=O)c1ccc(NC(=S)NC(=O)C2CCCCC2)cc1 | -0.702%

Row | Compound | hERG current change (%, negative = inhibition) at 10uM
45 | Cc1cc(C)n2nc(-c3ccc(Br)cc3)cc2n1 | 13.3%
46 | CCOC(=O)C1=C(O)/C(=C\c2cc(C)n(-c3ccccc3F)c2C)N=C1C | 6.21%
47 | COCCNC(=O)CSc1c2c(nc3ccc(Cl)cc13)CCCC2 | -6.9%
48 | COc1ccc2cc3cc(C(=O)N(C)C4CCCCC4)oc3nc2c1 | -5.7%
49 | CCOc1ccccc1/C=C(/NC(=O)c1ccccc1)C(=O)NCC(=O)O | 9.68%
50 | O=C1COc2ccc(C(=O)COC(=O)Cn3cnc4ccccc43)cc2N1 | -5.03%
51 | Cn1c(=O)oc2cc(S(=O)(=O)NCCC(=O)NCc3ccc(F)cc3)ccc21 | 12.5%
52 | CCCCc1nn(-c2cc(Cl)ccc2OC)c2c1C(=O)CCC2 | -26.3%
53 | CCCCNC(=S)N/N=C/c1cccc(OCC)c1O | 6.37%
54 | CCC1CCCCN1C(=O)CSc1nnc(CNC(=O)c2c(F)cccc2Cl)o1 (centres unmarked) | 10.7%
55 | Cc1ccc(-c2[nH]ncc2/C=N/n2c(C)nc3ccccc3c2=O)cc1 | 4.46%
56 | O=C(COC(=O)Cc1n[nH]c(=O)c2ccccc12)Nc1cccc(C(F)(F)F)c1 | -13.5%
57 | CSCCC(NC(=O)OC(C)(C)C)C(=O)Oc1ccc2c(=O)c(-c3ccc4c(c3)OCCO4)coc2c1 (centres unmarked) | 3.94%
58 | COc1ccc(C(CNC(=O)C(=O)Nc2ccc3c(c2)OCCO3)N2CCN(C)CC2)cc1 (centres unmarked) | -45.1%
59 | CCOc1ccc(S(=O)(=O)N/N=C(\C)c2ccc(OC)cc2OC)cc1 | -3.21%
60 | O=C1CC(C(=O)Nc2nccs2)C(c2ccccc2)O1 (centres unmarked) | -5.66%
61 | CCc1nnc(NC(=O)C2CC(=O)N(CCc3ccccc3)C2)s1 (centres unmarked) | 8.08%
62 | CC1=NN(C(=O)c2ccccc2Br)C(O)(c2ccc(Cl)cc2)C1 (centres unmarked) | 18.7%
63 | CCOc1ccc(-n2nc(C(=O)NCCOC)c3ccccc3c2=O)cc1 | 8.27%
64 | COc1ccc(-c2cc(C(F)(F)F)n3nc(C(=O)N4CCN5CCCC5C4)cc3n2)cc1OC (centres unmarked) | -64.4%
65 | CC(=O)Nc1ccccc1NC(=O)C/C(C)=N/NC(=O)Cc1cccc2ccccc12 | 10.8%
66 | Cc1ccc(NC(=O)c2ccccn2)cc1S(=O)(=O)N1CCOCC1 | -3.83%

Row | Compound | hERG current change (%, negative = inhibition) at 10uM
67 | CC(=O)N(c1ccccc1)c1c(F)c(F)c(F)c(F)c1F | 0.886%
68 | COc1ccc(/C=C2/N=C(SC3CCOC3=O)N(c3cccc(OC)c3)C2=O)cc1 (centres unmarked) | 0.303%
69 | CCOc1ccc(NC(=S)Nc2cccnc2)cc1 | 7.16%
70 | CC(=O)c1cc(Cl)ccc1OCC(=O)Nc1cccc(S(=O)(=O)N2CCCC2)c1 | 18.6%
71 | CCOC(=O)C1(CC)NC(c2ccco2)C2C(=O)N(CC)C(=O)C21 (centres unmarked) | 14.2%
72 | COc1ccc(CNC(=O)OCCN2CCN(S(=O)(=O)c3ccc(C)cc3)CCC2=O)cc1 | -35.9%
73 | CC(=O)Nc1ccc(NC(=O)Cn2nc([N+](=O)[O-])c(Br)c2C)cc1 | 2.91%
74 | N#Cc1cnc(Nc2ccc(F)cc2)nc1N | -2.18%
75 | Cc1ccnc(N/N=C/c2ccccc2)n1 | -0.0572%
76 | Oc1cc(Cc2ccccc2)cnc1CN1CCOCC1 | -16.9%
77 | CN(Cc1ccccc1)c1ccc(N2C(=O)CCCC2=O)cc1[N+](=O)[O-] | 6.5%
78 | O=C(O)c1cc2c(N3CCC(Cc4ccccc4)CC3)ncnc2s1 | 14.8%
79 | CCCc1cc(=O)n(-c2nc3ccccc3s2)[nH]1 | 11.2%
80 | O=c1ccnc(Sc2ncccc2[N+](=O)[O-])[nH]1 | -11%
81 | CCCN=Cc1c(CCC)[nH]n(-c2nc3ccccc3s2)c1=O | -66.9%
82 | COc1cc(-c2nc3cnccn3c2NC(C)(C)CC(C)(C)C)ccc1O | 7.94%
83 | O=C(NC(Nc1ncccn1)C(=O)c1ccccc1)c1ccccc1 (centres unmarked) | -36.1%
84 | CCOc1ccccc1NC(=O)Nc1ccsc1C(=O)OC | -62%
85 | COCCCN(CC(=O)Nc1ccc(N2CCOCC2)cc1)S(=O)(=O)c1ccccc1 | 9.28%
86 | COC(=O)c1cnc(Nc2cc(C)ccc2OC)c2ccccc12 | 18.1%
